Assay results: publication PMC4336329 (PLoS ONE, 2015)
Screen size: about 310,000 compounds; about 14,000 (4.5%) showed an effect of 50% or more. The effect is printed as a negative number. The list shows a part of the results.

target: human ether-à-go-go-related gene (hERG) potassium channel (human, UniProt Q12809); assay: primary screen, population patch clamp on CHO cells stably expressing hERG
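Also: peak tail current of the secondary pulse compared with the same well before compound.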

Chain of human ether-à-go-go-related gene (hERG) potassium channel (Q12809 whole entry, looked up): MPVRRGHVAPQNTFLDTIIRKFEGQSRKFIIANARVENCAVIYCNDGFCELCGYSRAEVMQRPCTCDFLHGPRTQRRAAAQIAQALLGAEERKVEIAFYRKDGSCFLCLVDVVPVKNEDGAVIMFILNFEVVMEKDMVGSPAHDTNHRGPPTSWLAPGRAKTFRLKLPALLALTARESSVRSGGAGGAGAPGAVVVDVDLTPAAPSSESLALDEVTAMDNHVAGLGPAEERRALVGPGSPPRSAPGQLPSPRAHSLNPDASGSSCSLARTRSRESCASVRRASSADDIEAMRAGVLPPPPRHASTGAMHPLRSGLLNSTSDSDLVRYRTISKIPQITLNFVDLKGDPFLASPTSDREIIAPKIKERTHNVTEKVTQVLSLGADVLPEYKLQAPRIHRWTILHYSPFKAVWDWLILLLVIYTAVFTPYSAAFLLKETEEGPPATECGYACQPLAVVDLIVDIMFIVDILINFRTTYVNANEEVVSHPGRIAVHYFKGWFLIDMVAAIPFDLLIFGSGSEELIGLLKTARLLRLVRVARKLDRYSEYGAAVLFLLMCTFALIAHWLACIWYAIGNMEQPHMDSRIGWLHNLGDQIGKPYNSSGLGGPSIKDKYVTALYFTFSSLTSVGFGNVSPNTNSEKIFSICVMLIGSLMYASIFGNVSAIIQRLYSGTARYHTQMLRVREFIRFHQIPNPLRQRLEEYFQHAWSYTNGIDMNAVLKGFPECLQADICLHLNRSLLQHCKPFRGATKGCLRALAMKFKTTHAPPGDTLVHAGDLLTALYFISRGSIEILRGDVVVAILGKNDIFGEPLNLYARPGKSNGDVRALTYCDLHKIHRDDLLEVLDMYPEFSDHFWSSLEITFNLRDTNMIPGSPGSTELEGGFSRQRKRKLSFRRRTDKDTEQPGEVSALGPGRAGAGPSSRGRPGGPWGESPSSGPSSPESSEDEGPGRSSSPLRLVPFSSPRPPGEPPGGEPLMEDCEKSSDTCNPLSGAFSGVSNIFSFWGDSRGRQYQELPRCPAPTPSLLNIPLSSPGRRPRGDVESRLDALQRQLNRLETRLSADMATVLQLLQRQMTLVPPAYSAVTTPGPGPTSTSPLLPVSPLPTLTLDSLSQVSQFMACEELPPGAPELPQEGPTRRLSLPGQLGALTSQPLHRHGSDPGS

Structure (SMILES)	hERG current change (%, negative = inhibition) at 10uM [%]
Cc1c(NC(=O)C(C)Oc2ncnc3ccccc23)c(=O)n(-c2ccccc2)n1C (stereo not drawn)	-3.9
CC(C)(C)C(=O)Nc1nnc(SCC(=O)NCc2cccs2)s1	16.3
CC(=O)c1sc(N/N=C\c2ccc(C)cc2)nc1C	-14.5
Nn1c(SCc2cc([N+](=O)[O-])cc3c2OCOC3)nnc1-c1ccccn1	-6.82
Cc1cccc(OCC(=O)Nc2nnn(C)n2)c1C	14.1
O=C(Nc1ccc(Cn2nnc3ccccc32)cc1)c1ccco1	-1.59
COc1ccc(Cl)cc1N(CC(=O)NC(C)(C)C)S(=O)(=O)c1ccc(C)c([N+](=O)[O-])c1	0.912
O=C1CCC(C(=O)NCc2cccnc2)N1 (stereo not drawn)	18.8
N#C/C(=C\c1ccc(Sc2ccc(Cl)cc2)o1)c1nc2ccccc2[nH]1	18.1
CCSc1nc2c(cnn2-c2ccccc2)c(=O)n1N	5.67
Cc1cccc(NC(=O)N2CCCc3ccccc32)c1C	-11.9
Oc1ccc2ccccc2c1N=Nc1ccc(F)cc1	1.05
CS(=O)(=O)N1CCN(c2ncccn2)CC1	13
CCOC(=O)c1c(NC(=O)c2ccc(Br)o2)sc(C)c1CC	-2.7
Cc1nc2ccc(Cl)cc2c(=O)n1-c1ccc([N+](=O)[O-])cc1	-3
O=C(Nc1ccccc1N1CCCCC1)c1ccc(-c2ccc(Cl)cc2)o1	-10
Cc1nc(C)c(CCNC(=O)c2ccccc2Br)s1	-4.11
O=C(O)CCCNC(=O)c1nn(Cc2ccccc2)c(=O)c2ccccc12	11.1
COC(=O)c1sc(N)c(C(=O)OC)c1COC(=O)C1CC(=O)N(Cc2ccco2)C1 (stereo not drawn)	-13.6
O=c1cc(-c2ccccc2)oc2ccc(O)cc12	-9.74
CCN1CCN(S(=O)(=O)c2ccc(Cl)c(C(=O)N(C)Cc3cccc(OC)c3)c2)CC1	-11.2
CN(C)c1ccc(Nc2c3c4c(cccc4n(C)c2=O)C(=O)c2ccccc2-3)cc1	12.7

Structure (SMILES)	hERG current change (%, negative = inhibition) at 10uM [%]
Cc1cccc(NC(=O)C2(C)CC3c4ccccc4C2c2ccccc23)c1C (stereo not drawn)	-10.1
CCC(=O)N/N=C(\C)CC(=O)Nc1ccccc1-c1ccccc1	4.21
CCOC(=O)CN1C(=O)N[C@@H](CCc2ccccc2)C(C(C)=O)=C1C	-14.6
CC(C)CC(OC(=O)c1ccco1)C(=O)NCC1CCCO1 (stereo not drawn)	7.97
CCN(CC)CCCN=Cc1c(-c2ccccc2)[nH]n(-c2nc3ccccc3s2)c1=O	-78.2
O=S1(=O)N=C(N2CCN(Cc3ccc4c(c3)OCO4)CC2)c2ccccc21	-31
CSc1ccc(C(=O)C2CCCN(C(=O)CCn3cncn3)C2)cc1 (stereo not drawn)	-14.9
O=c1c2cc([N+](=O)[O-])ccc2nc(CN2CCN(c3ccccn3)CC2)n1-c1ccccc1F	-28.3
O=S(=O)(c1cccc(NC(=S)Nc2ccc(Br)cc2Cl)c1)N1CCOCC1	0.48
CC(=O)c1coc2c1cc(O)c1ccccc12	20.9
CCOc1ccc(CCNC(=O)C2CCCN(C(=O)N(C)C)C2)cc1OCC (stereo not drawn)	-1.68
COc1ccc(C2/C(=C(/O)c3ccc(OC(C)C)cc3)C(=O)C(=O)N2CCCN2CCOCC2)cc1 (stereo not drawn)	3.64
COc1ccccc1CNC(=O)CSc1n[nH]c(N)n1	27.1
CC(OC(=O)CCCC(=O)Nc1ccccc1)C(=O)c1ccccc1 (stereo not drawn)	6.63
CCCCN(CC)CCCNC(=O)C1c2ccccc2C(=O)N(C)C1c1cn(C)c2ccccc12 (stereo not drawn)	-72.7
CCN(CC)C(=O)CSc1nnc(-c2cc(OC)cc(OC)c2)o1	-3.88
CC(C)(C)n1nnnc1C(c1ccncc1)N(Cc1ccccc1)Cc1ccco1 (stereo not drawn)	-25.8
O=Cc1ccc(-c2cccc([N+](=O)[O-])c2)o1	-18.6
CCCCN1CCNC1=S	15.8
COc1ccc(N(C(=O)CNC(=O)c2ccco2)C(C(=O)NC2CCCC2)c2ccncc2)cc1 (stereo not drawn)	13.1
Cc1csc(=O)n1CC(=O)OCC(=O)NNC(=O)c1ccc([N+](=O)[O-])cc1	0.832
NC(=O)C1CCN(c2ncccc2[N+](=O)[O-])CC1	5.61

Structure (SMILES)	hERG current change (%, negative = inhibition) at 10uM [%]
O=C(Nc1cc(Cl)ccc1C(=O)O)c1ccc(CN2C(=O)c3ccccc3C2=O)cc1	20.7
Cc1cc(C)c(OCCOCCN2CCN(C)CC2)c(Cl)c1.O=C(O)C(=O)O	-5.21
CN1N=C(c2ccc(F)c(F)c2)CSC1=NCc1ccccc1	4.52
COC(=O)c1c(-n2cnnn2)sc(C)c1C	6.69
CCC(NC(=O)c1cc(COc2c(F)cccc2F)on1)c1ccncc1 (stereo not drawn)	-5.19
O=C(N/C(=C\c1ccc2c(c1)OCO2)C(=O)N1CCOCC1)c1ccccc1Br	2.88
CCCn1c(=O)c(C(=O)NCC2CCCO2)c(O)c2ccccc21 (stereo not drawn)	-19
Cc1ccccc1-n1c(C)nc2ccsc2c1=O.Cl	9.62
S=C(NCc1ccccc1)N1CCN(Cc2ccc3c(c2)OCO3)CC1	-16.7
COc1nccnc1NS(=O)(=O)c1ccc(N=Cc2c(C)[nH]n(-c3ccccc3)c2=O)cc1	16.6
CC(=O)Nc1nc(C)c(S(N)(=O)=O)s1	-20.2
Cc1ccc(S(=O)(=O)NCC(=O)N(CC(=O)NCc2ccco2)Cc2ccco2)cc1	-23.5
CCCc1cc(=O)n2[nH]c(-c3ccc(Br)cc3)cc2n1	-10.5
COc1ccc(NC(=O)Cn2cc(C#N)c3ccccc32)cc1	15.3
COc1cc(CN2CCCC(C(=O)Nc3cccc(-n4cccn4)c3)C2)ccc1F (stereo not drawn)	-49.3
CC1=NOC2(C)Nc3ncnn3C(c3ccccc3)C12 (stereo not drawn)	-14.3
COc1ccc(OC)c(S(=O)(=O)N2CCN(C34CC5CC(CC(C5)C3)C4)CC2)c1	-22.9
COc1ccc(C2C(C#N)=C(N)Oc3n[nH]c(C)c32)cc1Cn1cc([N+](=O)[O-])cn1 (stereo not drawn)	-14
Cc1cc(NC(=O)Cn2nc(C(=O)O)c3ccccc3c2=O)c([N+](=O)[O-])cc1C	21.7
CCN(CC(=O)NCc1ccc(F)cc1)S(=O)(=O)c1ccc(C)cc1	-43.6
CCn1c(CNS(=O)(=O)c2ccc(Cl)cc2)n[nH]c1=S	22.2
Cc1ccc(N(CC(=O)NCCSCc2ccco2)S(C)(=O)=O)cc1	0.889

Structure (SMILES)	hERG current change (%, negative = inhibition) at 10uM [%]
CC1(C)CC(=O)C2=C(C1)N(c1cccc(Cl)c1)C(=O)NC2(C(F)(F)F)C(F)(F)F	2.04
COc1cc(CCCN2C(=O)C(=O)NC[C@@H]2CCCCN)cc(OC)c1OC	20.1
Cc1cc(=O)[nH]c(N/N=C/c2cc(C)n(-c3ccccc3)c2C)n1	13.8
Cc1ccc(-c2nnc(NC3CCCCC3)c3ccccc23)cc1S(=O)(=O)N1CCN(C)CC1	-54.6
O=C(NCCCN1CCOCC1)c1ccccc1N1C(=O)[C@@H]2Cc3c([nH]c4ccccc34)C(c3ccc(F)cc3)N2C1=O (stereo partly drawn)	-68
O=c1oc(C2(O)CCCCC2)cc2ccc(Br)cc12	20.1
CCn1cc(S(=O)(=O)N2CCN(Cc3cccc(Cl)c3)CC2)cn1	-2.04
O=C(OCc1ccc(-c2ccccc2)cc1)c1cccc(O)c1	12.5
COc1ccc(C2=NOC(Cn3nc(C(=O)O)cc3-c3ccccc3)C2)cc1 (stereo not drawn)	-10.3
Cc1ccc(N(CC(=O)NCc2ccco2)C(=O)CNS(=O)(=O)c2ccccc2)c(C)c1	-5.25
CC(C)CC(=O)Nc1nnc(S(=O)(=O)N(C)Cc2ccco2)s1	22.9
O=C(COc1cccnc1[N+](=O)[O-])NCc1cccs1	-10.9
CC(C)NC(=O)c1cc(C(=O)c2cc(Cl)ccc2O)coc1=N	-3.22
CC1CCN(C(=O)C(NS(=O)(=O)c2cccc3nsnc23)C(C)C)CC1 (stereo not drawn)	-5.48
O=C(N/C(=C\c1ccccc1)C(=O)N1CCCCC1)c1ccc(Br)o1	15.8
N#CC1=C(N)Oc2cc(O)c(C=Nc3ccccc3)cc2C1c1ccccc1 (stereo not drawn)	-4.45
O=[N+]([O-])c1ccc(Sc2n[nH]c(-c3ccncc3)n2)nc1	14.4
COc1ccc(C(=O)OCc2csc(C)n2)c(O)c1	0.732
Cc1cc(NC(=O)Cn2nnc3sc4c(c3c2=O)CCCC4)no1	9.97
COc1ccc(S(=O)(=O)N(CC(=O)NCCSc2ccccn2)c2ccccc2)cc1	7.58
Cc1ccccc1OCC(=O)Nc1cc(Cl)ccc1Oc1ccccc1	0.121
